Test results: publication PMC6919601, “Identification of Plasmodium dipeptidyl aminopeptidase allosteric inhibitors by high throughput screening” (PLoS ONE, 2019)
Among all 110,000 compounds or so, about 230 (0.21%) showed an effect of 50% or more. The list shows a part of the results.

Target: DPAP1 (Plasmodium falciparum, UniProt Q8IIJ9)
Test: primary screen, percent inhibition; read by cleavage of a fluorogenic dipeptide substrate; higher = more effect of the substance
Parameters: species or system P. falciparum D10 trophozoite lysates; single well
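Note: 30 min substrate incubation versus DMSO and 10 µM JCP410 controls.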

Sequence of DPAP1 (Q8IIJ9 whole entry, looked up): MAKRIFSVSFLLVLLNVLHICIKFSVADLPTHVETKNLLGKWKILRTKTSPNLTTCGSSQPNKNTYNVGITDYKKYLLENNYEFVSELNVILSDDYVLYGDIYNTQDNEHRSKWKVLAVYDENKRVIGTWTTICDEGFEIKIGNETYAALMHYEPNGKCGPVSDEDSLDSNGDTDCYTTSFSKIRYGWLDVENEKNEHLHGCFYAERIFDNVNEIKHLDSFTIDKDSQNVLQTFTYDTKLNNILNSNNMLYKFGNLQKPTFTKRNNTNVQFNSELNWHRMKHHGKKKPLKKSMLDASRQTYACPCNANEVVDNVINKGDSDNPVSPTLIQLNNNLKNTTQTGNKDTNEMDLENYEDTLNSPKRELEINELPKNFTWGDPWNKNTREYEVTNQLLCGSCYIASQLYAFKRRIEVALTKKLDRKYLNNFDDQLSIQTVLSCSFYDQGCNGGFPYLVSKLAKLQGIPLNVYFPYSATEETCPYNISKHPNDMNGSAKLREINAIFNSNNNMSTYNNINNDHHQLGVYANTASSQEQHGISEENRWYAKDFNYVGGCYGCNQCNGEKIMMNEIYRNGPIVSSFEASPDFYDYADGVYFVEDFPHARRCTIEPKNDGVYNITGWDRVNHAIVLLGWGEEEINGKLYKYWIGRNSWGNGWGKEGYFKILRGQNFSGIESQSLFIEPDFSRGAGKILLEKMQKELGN

| SMILES | % Inhibition @ 10 uM [%] |
| --- | --- |
| CCCN(C(=O)C(C)(C)C)c1nc(-c2ccccc2)cs1 | -3.28 |
| COCc1cc(C)nc2sc(C(=O)c3ccccc3)c(NC(=O)c3ccco3)c12 | -2.8 |
| CCCN1C(C(=O)c2ccccc2)=C(OC(=O)c2ccccc2)c2ccccc2S1(=O)=O | -1.22 |
| Cc1ccc(/C=N/c2nc3ccccc3n2Cc2ccc(Cl)cc2)o1 | 21.4 |
| CCOc1ccccc1CN(C)CCN(C)C | 3.48 |
| O=C(NCc1ccccc1)N1CCC(CN2CCc3ccccc3C2)CC1 | 8.14 |
| Cc1ccc(NC(=O)CC2Nc3cc(C)c(C)cc3NC2=O)cc1C (stereo not drawn) | 1.86 |
| COc1ccc(C/N=C/C2=C(O)c3sccc3N(Cc3ccc(C)cc3)S2(=O)=O)cc1 | 7.46 |
| O=[N+]([O-])c1ccc(N2CCN(CC3CC4C=CC3C4)CC2)cc1 (stereo not drawn) | -4.14 |
| CCOc1ccc(S(=O)(=O)NCCc2c(C)[nH]c3ccc(C)cc23)cc1 | 4.12 |
| CCC(Sc1nc2c(sc3ccccc32)c(=O)n1CCCOC)C(=O)NC1CCCC1 (stereo not drawn) | -0.628 |
| O=C(O)c1ccc(C(=O)NCc2ccco2)c(C(=O)O)c1 | -2.88 |
| NC(=O)c1ccc(NC(=O)c2ccc(Cl)cc2)cc1 | 3.21 |
| Cc1ccc(CS(=O)Cc2ccc(C(=O)N3CCOCC3)o2)cc1 (stereo not drawn) | -2.44 |
| COc1ccccc1/C=C/C1=NC(=C\C=C/c2ccccc2)/C(=O)O1 | 20.5 |
| COc1cc(S(=O)(=O)N2CCC(n3c(O)nc4ccccc43)CC2)ccc1-n1cnnn1 | -2.4 |
| NS(=O)(=O)c1ccc(N2C(=O)c3cccnc3C2=O)cc1 | -14.8 |
| CC1CCN(S(=O)(=O)c2ccc(NS(=O)(=O)Cc3ccccc3)cc2)CC1 | 0.956 |
| CCCC[C@H](NC(=O)[C@H](CC(C)C)NC(=O)OCc1ccccc1)C(=O)c1nnc(-c2ccccc2)o1 | -6.46 |
| CCOc1ccccc1C1CC(=O)Nc2cc(C)c(C)cc21 (stereo not drawn) | -1.24 |
| CCOc1cc(-c2noc(CCCC(=O)NC3CCCCC3)n2)cc(Br)c1OC | -0.946 |
| COc1cc(C(=O)N2CCC(C)CC2)cc(OC)c1OC | -5.13 |
| O=C1CC(c2ccccc2)=NN1c1cccc([N+](=O)[O-])c1 | -1.64 |
| Cc1c(Cl)cccc1NC(=O)c1ccccc1C(=O)O | -2.56 |
| O=C(O)c1ccc(CNS(=O)(=O)c2cccc(Cl)c2)cc1 | -2.76 |
| NC(=S)N/N=C1\CC(n2nnnc2-c2ccccc2Cl)C2COC1O2 (stereo not drawn) | 4.19 |
| CC(C(=O)NCC1(c2ccccc2)CCCC1)N1CCCC1 (stereo not drawn) | 3.89 |
